This is one part of the list.
B1: PhoQ; a variant is named by its letters at X, in order, P23837 (parent)
chain: MKKLLRLFFPLSLRVRFLLATAAVVLVLSLAYGMVALIGYSVSFDKTTFRLLRGESNLFYTLAKWENNKLHVELPENIDKQSPTMTLIYDENGQLLWAQRDVPWLMKMIQPDWLKSNGFHEIEADVNDTSLLLSGDHSIQQQLQEVREDDDDAEMTHSVAVNVYPATSRMPKLTIVVVDTIPVELKSSYMVWSWFIYVLSANLLLVIPLLWVAAWWSLRPIEALAKEVRELEEHNRELLNPATTRELTSLVRNLNRLLKSERERYDKYRTTLTDLTHSLKTPLXXLQXXLRSLRSEKMSVSDAEPVMLEQISRISQQIGYYLHRASMRGGTLLSRELHPVAPLLDNLTSALNKVYQRKGVNISLDISPEISFVGEQNDFVEVMGNVLDNACKYCLEFVEISARQTDEHLYIVVEDDGPGIPLSKREVIFDRGQRVDTLRPGQGVGLAVAREITEQYEGKIVAGESMLGGARMEVIFGRQHSAPKDE

Variants of: B1
Assay: enrichment ratio after two sorts for PhoP signalling (ratio (wild type AVST 3.29)); higher = more functional
Details: with PhoP (E. coli)

Variant	enrichment ratio
YCWM	≤ 0.25
IEMT	≤ 0.25
NSVL	≤ 0.25
QGNM	6.96
PKCN	≤ 0.25
PFPA	≤ 0.25
PWMT	≤ 0.25
WLDP	≤ 0.25
LSKM	3.36
DPYT	≤ 0.25
FWWV	≤ 0.25
TCGT	11
ENAE	≤ 0.25
YGCM	4.55
TPIM	≤ 0.25
FRMD	≤ 0.25
AEQV	12.7
GAAM	≤ 0.25
MPLA	≤ 0.25
PVSH	≤ 0.25
HDCT	≤ 0.25
SKHQ	≤ 0.25
DGIW	≤ 0.25
VTNA	≤ 0.25
HPMV	≤ 0.25

Variant	enrichment ratio
HWTM	≤ 0.25
FNYK	0.488
QDRQ	≤ 0.25
EDMS	≤ 0.25
LCWC	≤ 0.25
ETKM	≤ 0.25
ALVY	≤ 0.25
NMYI	≤ 0.25
IVMK	≤ 0.25
FIKT	≤ 0.25
ESAM	≤ 0.25
PCVV	≤ 0.25
IDIF	≤ 0.25
GKPR	≤ 0.25
LCQI	≤ 0.25
SPEV	≤ 0.25
PLYS	≤ 0.25
KVSD	≤ 0.25
PAMT	≤ 0.25
SIEC	≤ 0.25
PWQG	≤ 0.25
QCDA	≤ 0.25
SCHI	≤ 0.25
MVWM	0.553
QLMY	≤ 0.25

Variant	enrichment ratio
IPMF	≤ 0.25
RSIL	≤ 0.25
RQKC	≤ 0.25
LHCD	≤ 0.25
ATLP	≤ 0.25
KFEC	≤ 0.25
YWEG	≤ 0.25
PTSC	≤ 0.25
LRDH	≤ 0.25
LNER	≤ 0.25
RYTQ	≤ 0.25
FQAI	≤ 0.25
TLYE	≤ 0.25
RAST	0.266
DLRW	≤ 0.25
FFEF	≤ 0.25
WHRQ	≤ 0.25
YMSW	≤ 0.25
MAFP	≤ 0.25
SCNT	≤ 0.25
QAST	0.86
FICW	≤ 0.25
HLRV	≤ 0.25
LNLA	≤ 0.25
MYEM	≤ 0.25

Variant	enrichment ratio
PCKH	≤ 0.25
MMRP	≤ 0.25
LIRY	≤ 0.25
MVCN	≤ 0.25
TKTS	11.9
GSHK	≤ 0.25
VYSI	≤ 0.25
ELYN	≤ 0.25
GGHK	≤ 0.25
NPFH	≤ 0.25
DWAF	≤ 0.25
WEIY	≤ 0.25
RWGA	≤ 0.25
TQVT	9.49
PDTR	≤ 0.25
GKIT	≤ 0.25
NQAD	≤ 0.25
KEST	≤ 0.25
HTSQ	≤ 0.25
TQAE	8.04
VREH	≤ 0.25
QFAY	≤ 0.25
QCYE	0.304
MWFR	≤ 0.25
KIEC	≤ 0.25

Variant	enrichment ratio
YNSV	≤ 0.25
PEMG	≤ 0.25
DYLP	≤ 0.25
VHFV	≤ 0.25
FGAP	≤ 0.25
STQI	3.79
MFDS	≤ 0.25
MNFW	≤ 0.25
RLVT	≤ 0.25
LWGP	≤ 0.25
RASQ	≤ 0.25
EMVF	≤ 0.25
WFAH	≤ 0.25
NHWV	≤ 0.25
QTVN	≤ 0.25
IMHK	≤ 0.25
QECM	≤ 0.25
DETG	≤ 0.25
KMKD	≤ 0.25
PWHL	≤ 0.25
MIIF	≤ 0.25
DAFR	≤ 0.25
SDCT	4.8
MIFI	4.01
QPTV	≤ 0.25

Variant	enrichment ratio
VNAW	≤ 0.25
GSKM	≤ 0.25
VALH	1.54
ICGN	≤ 0.25
YHME	≤ 0.25
SNSL	16.8
HWCP	≤ 0.25
KHIY	≤ 0.25
DNKN	≤ 0.25
QMRH	≤ 0.25
YFMY	≤ 0.25
DCAD	≤ 0.25
DHWR	≤ 0.25
PVEK	≤ 0.25
LVGD	≤ 0.25
VNFE	≤ 0.25
FWSS	≤ 0.25
GWFV	≤ 0.25
PPIW	≤ 0.25
FIWG	≤ 0.25
LFFQ	≤ 0.25
RTWG	≤ 0.25
CVCF	≤ 0.25
ANCW	6.44
SIWN	4.21

Variant	enrichment ratio
GRAP	≤ 0.25
DHHM	≤ 0.25
QQTD	≤ 0.25
IVPG	≤ 0.25
NIRD	≤ 0.25
LIGH	≤ 0.25
KDNK	≤ 0.25
VGIT	≤ 0.25
MVKC	≤ 0.25
EEGF	≤ 0.25
TKKC	≤ 0.25
NYWY	≤ 0.25
EGNT	≤ 0.25
FMSM	≤ 0.25
QGES	≤ 0.25
VMMA	≤ 0.25
NLTT	≤ 0.25
DCGL	≤ 0.25
GFYW	≤ 0.25
FLME	≤ 0.25
DPIE	≤ 0.25
NVAK	≤ 0.25
NYKI	≤ 0.25
KMVP	≤ 0.25
MGGP	≤ 0.25

Variant	enrichment ratio
LLYG	≤ 0.25
VAGQ	≤ 0.25
VIPN	≤ 0.25
DPYC	≤ 0.25
SPDL	≤ 0.25
WTTL	≤ 0.25
FRDV	≤ 0.25
VSDM	≤ 0.25
KKSF	≤ 0.25
VCCV	≤ 0.25
NFTF	≤ 0.25
WIQN	≤ 0.25
WQWR	≤ 0.25
GAFM	≤ 0.25
IRNK	≤ 0.25
IWTN	≤ 0.25
SQCA	8.55
VFCK	≤ 0.25
PAKE	≤ 0.25
YRKQ	≤ 0.25

— a collection of fitness landscapes (doi:10.1126/science.1257360)
